Data published in PubChem BioAssay AID686979 (National Center for Advancing Translational Sciences (NCATS), 2013).
Several values for one entry are separate records, joined by “and”; a condition that tells them apart may be missing. Identical values can stand only once. Hit rate of the full screen: of about 420,000 compounds, about 50,000 (12%) were called active. Inconclusive means that the source gave no clear call. Such entries were picked first, then a sample of the others. Calls follow the shape of the dose curve; as a rule, active = well fitted inhibition curve with a large enough effect; inconclusive = small, poorly fitted or top-dose-only effect; inactive = flat fitted curve, though single readings scatter. Where the call is inconclusive, the potency comes from a doubtful curve fit.

Assay: qHTS for Inhibitors of human tyrosyl-DNA phosphodiesterase 1 (TDP1): qHTS in cells in presence of CPT; also: nearly all actives have a fitted effect of over 55% in size
Details: chicken DT40 Tdp1-/-;hTDP1 cells + 20 nM CPT, ATP luminescence, 48 h; activity change, negative = growth inhibition: at 46.2 µM (top of the series) unless noted
In short: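 Chicken DT40 Tdp1-/- cells stably complemented with human TDP1 were seeded at 400 cells/well in medium containing 20 nM camptothecin, exposed to pin-transferred compounds, and grown at 37 °C for at least 48 hr. Viability was read as ATP luminescence.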
% is scaled to controls: 0 for no effect and ±100 for the full control effect; potency is read from the fitted curve at half-maximal effect; tags tell the direction and shape of the fitted curve.

Row | SMILES | Potency | activity change, negative = growth inhibition
1 | Cn1c(=O)c(=O)n(C)c2cc(S(=O)(=O)Nc3ccc(OC(F)(F)F)cc3)ccc21 | inconclusive: 32.6 µM [inhibitor, single point] | 
2 | CCOC(=O)c1c(S(=O)(=O)NCC(=O)N2CCN(c3cc(C)ccc3C)CC2)c(C)n(C)c1C | inconclusive: 29.1 µM [inhibitor, single point] | 
3 | C[C@H](c1ccccc1)N1C[C@@H](COCc2ccccc2)Oc2cc(N3CCC[C@H]3CO)ccc2S1(=O)=O | inconclusive: 29.1 µM [inhibitor, single point] | 
4 | Nc1cc(=O)[nH]c(=O)n1CCCc1ccccc1 |  | inactive: -5.07%
5 | N/C(=N\OC(=O)c1cc(-c2ccccc2)nc2ccccc12)c1ccc(Cl)cc1 | inconclusive: 29.1 µM [inhibitor, single point] | 
6 | CCN(CC)C(=O)[C@H]1C[C@H](CC(=O)NCCCN(C)C)C(=O)N2CCc3c([nH]c4ccc(Cl)cc34)[C@]12C | active: 18.4 µM | 
7 | CSc1nsc(/C=C/Nc2ccc(C)cc2)c1C#N | inconclusive: 20.6 µM [inhibitor, single point] | 
8 | OCCC1CN(Cc2cnc(-c3ccccc3)s2)CCN1CCc1ccccc1 (stereo unspecified) | inconclusive: 29.1 µM [inhibitor, single point] | 
9 | CCOC(=O)N1CCN(C(=O)c2cc(C)c3c(C)nn(-c4ccccc4)c3n2)CC1 | inconclusive: 29.1 µM [inhibitor, single point] | 
10 | Cc1nc2ccc(Br)cn2c1C(=O)N/N=C\c1ccccc1Cl | inconclusive: 18.4 µM [inhibitor, partial curve] | 
11 | Cc1ccc(C(=O)Oc2ccc(Cl)c3cccnc23)cc1[N+](=O)[O-] | inconclusive: 25.9 µM [inhibitor, single point] | 
12 | CNC(=O)CC(CC(=O)c1ccccc1)c1ccccc1 (stereo unspecified) |  | inactive: -23.3%
13 | O=C(Nc1ccc2c(c1)OCCO2)c1ccc(Br)c(S(=O)(=O)N2CCOCC2)c1 | inconclusive: 29.1 µM [inhibitor, single point] | 
14 | Cc1cccc(C)c1NC(=O)Cn1c(=O)n(CCCS(=O)(=O)C2CCCCC2)c(=O)c2ccccc21 |  | inactive: -2.93%
15 | Cc1cccc(N2CCN(c3ccc(C(=O)O)cc3NC(=O)c3cccc(Cl)c3)CC2C)c1 (stereo unspecified) | inconclusive: 20.6 µM [inhibitor, single point] | 
16 | FC(F)(F)c1ccc(CSc2nccn2-c2ccccc2)cc1 | inconclusive: 23.1 µM [inhibitor, single point] | 
17 | O=S(=O)(c1cccc(F)c1)N1CCc2sccc2C1c1ccc(OC(F)(F)F)cc1 (stereo unspecified) | inconclusive: 18.4 µM [inhibitor, partial curve] | 
18 | CCCN(C(=O)Cn1ncc2c1-c1ccccc1OC2)c1cccc(C)c1 | inconclusive: 23.1 µM [inhibitor, partial curve] | 
19 | CCOC(=O)c1c(NC(=O)C2=C(C)NC(=S)NC2c2ccccc2C(F)(F)F)sc(C)c1C (stereo unspecified) | inconclusive: 29.1 µM [inhibitor, single point] | 
20 | O=C(COC(=O)c1cccc(-n2cnnn2)c1)c1ccc(F)c(F)c1 |  | inactive: -1.99%
21 | C[n+]1cc[nH]c1SCC(=O)c1ccccc1 |  | inactive: -3.08%
22 | CN1C[C@@H]2[C@@H]3C(=O)N(Cc4ccccc4)C(=O)[C@@H]3[C@](Cc3ccccc3)(C1=O)N2C(=O)c1ccc(C(F)(F)F)cc1 | inconclusive: 18.4 µM [inhibitor, single point] | 

Row | SMILES | Potency | activity change, negative = growth inhibition
23 | OC[C@@H]1CN(Cc2ccc(F)cc2)C[C@H](n2cnc3c(N4CCN(c5ccccc5)CC4)ncnc32)O1 | active: 18.4 µM | 
24 | CCOC(=O)C1CCN(c2c(C(=O)c3ccc(OC)cc3)cnc3ccccc23)CC1 | active: 20.6 µM | 
25 | Cc1cccc(C(=O)NC(=S)NNC(=O)COc2c(C)cccc2C)c1 | inconclusive: 29.1 µM [inhibitor, single point] | 
26 | O=C(CSc1ccccc1)Nc1nc2ccccc2[nH]1 | inconclusive: 16.4 µM [inhibitor, single point] | 
27 | COC(=O)CCN(C(=O)c1ccc(Cl)c([N+](=O)[O-])c1)c1ccccn1 |  | inactive: -8.49%
28 | CCS(=O)(=O)Nc1ccc(C2=NN(C(=O)c3ccco3)C(c3cccs3)C2)cc1 (stereo unspecified) | inconclusive: 23.1 µM [inhibitor, single point] | 
29 | COc1cccc(C2=CC(=O)C[C@H](c3ccc(Cl)cc3)C2)c1OC | active: 23.1 µM | 
30 | CC1(C(=O)NCCc2c[nH]c3ccccc23)CCN1Cc1ccccc1OC(F)F (stereo unspecified) | active: 18.4 µM | 
31 | O=C(Cn1c(=O)oc2cc(S(=O)(=O)N3CCCCCC3)ccc21)Nc1ccc(F)cc1F | inconclusive: 29.1 µM [inhibitor, single point] | 
32 | Cc1ccc(C)c(Cn2c(CO)nc3ccccc32)c1 | inconclusive: 18.4 µM [inhibitor, single point] | 
33 | CN(c1ccccc1)S(=O)(=O)c1nnc(NC(=O)COc2ccccc2)s1 | inactive and inconclusive: 29.1 µM [inhibitor, single point] | 
34 | CC(=O)Nc1ccc(N2CCN(Cc3ccccc3F)CC2)cc1 |  | inactive: -9.75%
35 | CCOc1cccc(C(=O)NC(=S)Nc2ccc(N3CCCC3)cc2)c1 |  | inactive: -23.2%
36 | CCC12C(=O)C(CC)(C(c3ccccc3)=C1c1ccccc1)[C@@H]1C(=O)N(c3ccccc3)C(=O)C12 (stereo partly specified) | inconclusive: 8.2 µM [inhibitor, partial curve] | 
37 | COc1ccc(C(c2nnnn2CS(=O)(=O)c2ccc(C)cc2)N2CCN(Cc3ccccc3)CC2)cc1 (stereo unspecified) | inconclusive: 29.1 µM [inhibitor, single point] | 
38 | Cc1cc(C)cc(-n2c(C)cc(C(=O)C(=O)Nc3nnc(C)s3)c2C)c1 |  | inactive: -23.4%
39 | COc1cccc(/C=N/NC(=O)c2ccc(CN3c4cccc5cccc(c45)S3(=O)=O)cc2)c1 |  | inactive: 4.18%
40 | Cc1cc(N2CCCC2)ccc1NC(=O)COc1ccc(Cl)cc1 | inconclusive: 20.6 µM [inhibitor, partial curve] | 
41 | CC(C)CC(=O)NC(c1ccccc1)c1c(O)ccc2ccccc12 (stereo unspecified) | inconclusive: 18.4 µM [inhibitor, single point] | 
42 | Cc1ccccc1-c1cccc(CN2CCN(C)C(CCO)C2)c1 (stereo unspecified) |  | inactive: -22.8%
43 | COCCNc1nc(NCc2cccc(OC)c2)c2sccc2n1 | active: 14.6 µM | 
44 | COc1ccc(-c2cn3cccnc3n2)cc1NC(=O)C(C)Oc1ccccc1 (stereo unspecified) | inconclusive: 23.1 µM [inhibitor, single point] | 

Row | SMILES | Potency | activity change, negative = growth inhibition
45 | CNc1ncnc2c1ncn2-c1ccccc1 | inconclusive: 32.6 µM [inhibitor, single point] | 
46 | Cc1ccc(NC(=O)c2nc[nH]c2C(=O)N2CCN(C(=O)OC(C)(C)C)CC2)cc1 | inconclusive: 29.1 µM [inhibitor, single point] | 
47 | CCC(C)c1ccc(OCc2ccc(C(=O)O)o2)cc1 (stereo unspecified) |  | inactive: 1.36%
48 | CC(=O)N1CCC2(CC1)CC(=O)c1cc(OCC(=O)NCc3ccc(C)cc3)ccc1O2 |  | inactive: -17.8%
49 | CCN(CC)CCN(C(=O)/C=C/c1cccs1)c1nc2ccc(F)cc2s1 | inconclusive: 29.1 µM [inhibitor, single point] | 
50 | N#C/C(=C/C1=C(N2CCOCC2)C(=C/c2cccc([N+](=O)[O-])c2)/CC1)C(=O)Nc1ccccc1F | active: 10.3 µM | 
51 | COc1cc(-c2noc(C3CCCN(C(=O)c4c(F)cccc4F)C3)n2)cc(OC)c1OC (stereo unspecified) | inconclusive: 13 µM [inhibitor, partial curve] | 
52 | COc1ccc(CNC(=O)O[C@@H]2C[C@H]3C(=O)N(c4ccccc4)C(=O)[C@H]3[C@@]3(CN(S(=O)(=O)c4ccc(C)cc4)C[C@H]3C)[C@@H]2O)cc1OC | inconclusive: 11.6 µM [inhibitor, partial curve] | 
53 | C/C(CC(=O)Nc1ccc(Cl)c(Cl)c1)=N\NC(N)=S | inconclusive: 20.6 µM [inhibitor, single point] | 
54 | CCOc1ccccc1CNC(=O)c1ccc(NC(=O)N2CC(C)Sc3ccccc32)cc1 (stereo unspecified) | active: 13 µM | 
55 | Cc1cccc(C(=O)c2c(N)sc3c2CCC(C)C3)c1 (stereo unspecified) | inconclusive: 29.1 µM [inhibitor, single point] | 
56 | COc1ccc(C(=O)N2CCN(c3ccc(F)cc3)CC2)cc1S(=O)(=O)NC1CC1 |  | inactive: -21.8%
57 | CCCN(CCC)C(=O)Cn1c(SCc2cccc(C(F)(F)F)c2)nc2cccnc21 | inconclusive: 29.1 µM [inhibitor, single point] | 
58 | COc1cc(CC(=O)OCC(=O)Nc2sccc2C(N)=O)cc(OC)c1OC | active: 29.1 µM | 
59 | FC(F)(F)Oc1ccccc1C(c1nnnn1Cc1ccccc1)N1CCN(C/C=C/c2ccccc2)CC1 (stereo unspecified) | inconclusive: 20.6 µM [inhibitor, single point] | 
60 | COc1cccc2c1Oc1ncccc1N(C(=O)CCC(=O)NCc1ccc(F)cc1)C2 | inconclusive: 23.1 µM [inhibitor, single point] | 
61 | N#CCc1c(C#N)c(N)nc(N2CCN(Cc3ccc4c(c3)OCO4)CC2)c1C#N | inconclusive: 25.9 µM [inhibitor, single point] | 
62 | CCOC(=O)C1CCCN(C(=O)c2cc(=O)c3ccccc3o2)C1 (stereo unspecified) |  | inactive: 0.224%
63 | Cc1nn(C)c2ncc(C(N)=O)c(Oc3cccnc3)c12 |  | inactive: 2.65%
64 | CCOC(=O)C1=CCN(S(=O)(=O)c2ccccc2F)C1c1cccc(C)c1 (stereo unspecified) | inconclusive: 29.1 µM [inhibitor, single point] | 
65 | O=S(=O)(c1ccccc1)N1CCN(C(c2ccccc2)c2ccc(OC(F)(F)F)cc2)CC1 (stereo unspecified) | inconclusive: 29.1 µM [inhibitor, single point] | 
66 | CN(C)S(=O)(=O)c1ccc2oc(SCC(=O)c3c(N)n(C4CC4)c(=O)[nH]c3=O)nc2c1 |  | inactive: -8.2%
